# Measurements published in the supplement of paper PMC4604168 (melanoma cell lines).
# This is one part of the list. Many values rest on one well or one pass, so single values are uncertain.
# Test system: A2058
# Assay: cell count relative to DMSO control; melanoma cells; higher = more viable cells
# Details: library dose: standard library concentration; 72 h
# 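Also: cells treated in 1,536-well plates, then fixed and DAPI-stained, with nuclei counted from automated high-throughput microscope images.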
row,Compound,cell count
1,"C[C@]1(O)C[C@@H](c2nc(-c3ccc4ccc(-c5ccccc5)nc4c3)c3c(N)nccn32)C1 + C=CCNC1=C2C[C@@H](C)C[C@H](OC)[C@H](O)[C@@H](C)/C=C(\C)[C@H](OC(N)=O)[C@@H](OC)/C=C\C=C(/C)C(=O)NC(=CC1=O)C2=O [Tanespimycin] (first compound 2 µM, partner dose 0.01 µM)",57.7%
2,"COc1cc([C@@H]2c3cc4c(cc3[C@@H](O[C@@H]3O[C@@H]5CO[C@@H](C)O[C@H]5[C@H](O)[C@H]3O)[C@H]3COC(=O)[C@H]23)OCO4)cc(OC)c1O [etoposide] + OCCn1cc(-c2cnc3nnn(Cc4ccc5ncccc5c4)c3n2)cn1 [PF04217903] (first compound 0.1 µM, partner dose 5 µM)",87.5%
3,"C[C@]1(O)C[C@@H](c2nc(-c3ccc4ccc(-c5ccccc5)nc4c3)c3c(N)nccn32)C1 + Cc1cc(Nc2cc(N3CCN(C)CC3)nc(/C=C/c3ccccc3)n2)n[nH]1 [ENMD2076] (first compound 2 µM, partner dose 0.2 µM)",93.6%
4,"COc1cc([C@@H]2c3cc4c(cc3[C@@H](O[C@@H]3O[C@@H]5CO[C@@H](C)O[C@H]5[C@H](O)[C@H]3O)[C@H]3COC(=O)[C@H]23)OCO4)cc(OC)c1O [etoposide] + O=C(Nc1cc(C(F)(F)F)cc(C(F)(F)F)c1)c1cc(Cl)ccc1O [IMD0354] (first compound 0.1 µM, partner dose 0.08 µM)",79.2%
5,"Cn1cnc2c(F)c(Nc3ccc(Br)cc3Cl)c(C(=O)NOCCO)cc21 [selumetinib] + Nc1ccn([C@@H]2O[C@H](CO)[C@@H](O)C2(F)F)c(=O)n1 [gemcitabine] (first compound 0.075 µM, partner dose 0.002 µM)",79.3%
6,"COc1cc([C@@H]2c3cc4c(cc3[C@@H](O[C@@H]3O[C@@H]5CO[C@@H](C)O[C@H]5[C@H](O)[C@H]3O)[C@H]3COC(=O)[C@H]23)OCO4)cc(OC)c1O [etoposide] + NC(=O)Nc1cc(-c2cccc(F)c2)sc1C(=O)N[C@H]1CCCNC1 [AZD7762] (first compound 0.1 µM, partner dose 0.1 µM)",54.6%
7,"CCN(CC)CCNC(=O)c1c(C)[nH]c(/C=C2\C(=O)Nc3ccc(F)cc32)c1C [sunitinib] + COc1cc2c(Oc3ccc4[nH]c(C)cc4c3F)ncnc2cc1OCCCN1CCCC1 [cediranib] (first compound 2 µM, partner dose 2 µM)",55.1%
8,"C[C@]1(O)C[C@@H](c2nc(-c3ccc4ccc(-c5ccccc5)nc4c3)c3c(N)nccn32)C1 + Cn1cncc1[C@@](N)(c1ccc(Cl)cc1)c1ccc2c(c1)c(-c1cccc(Cl)c1)cc(=O)n2C [tipifarnib] (first compound 2 µM, partner dose 0.05 µM)",75.3%
9,"COc1cc([C@@H]2c3cc4c(cc3[C@@H](O[C@@H]3O[C@@H]5CO[C@@H](C)O[C@H]5[C@H](O)[C@H]3O)[C@H]3COC(=O)[C@H]23)OCO4)cc(OC)c1O [etoposide] + CNC(=O)c1cc(Oc2ccc(NC(=O)Nc3ccc(Cl)c(C(F)(F)F)c3)cc2)ccn1 [sorafenib] (first compound 0.1 µM, partner dose 2 µM)",95.5%
10,"C[C@]1(O)C[C@@H](c2nc(-c3ccc4ccc(-c5ccccc5)nc4c3)c3c(N)nccn32)C1 + CN(NC(=O)CC(=O)NN(C)C(=S)c1ccccc1)C(=S)c1ccccc1 [STA4783] (first compound 2 µM, partner dose 0.03 µM)",6.21%
11,"COc1cc([C@@H]2c3cc4c(cc3[C@@H](O[C@@H]3O[C@@H]5CO[C@@H](C)O[C@H]5[C@H](O)[C@H]3O)[C@H]3COC(=O)[C@H]23)OCO4)cc(OC)c1O [etoposide] + CCCCCCCCCCCCCCCCCCOP(=O)([O-])OC1CC[N+](C)(C)CC1 [Perifosine] (first compound 0.1 µM, partner dose 2 µM)",77.8%

# Test system: A375
# Assay: as above
# Details: library dose: standard library concentration; 72 h
row,Compound,cell count
1,"COc1cc([C@@H]2c3cc4c(cc3[C@@H](O[C@@H]3O[C@@H]5CO[C@@H](C)O[C@H]5[C@H](O)[C@H]3O)[C@H]3COC(=O)[C@H]23)OCO4)cc(OC)c1O [etoposide] + Nc1cccc2c1CN(C1CCC(=O)NC1=O)C2=O [lenalidomide] (first compound 0.1 µM, partner dose 5 µM)",89.6%
2,"Cn1cnc2c(F)c(Nc3ccc(Br)cc3Cl)c(C(=O)NOCCO)cc21 [selumetinib] + NCC(=O)Nc1ccc(-n2nc(C(F)(F)F)cc2-c2ccc3c(ccc4ccccc43)c2)cc1 [OSU03012] (first compound 0.075 µM, partner dose 5 µM)",71.7%
3,"Cn1cnc2c(F)c(Nc3ccc(Br)cc3Cl)c(C(=O)NOCCO)cc21 [selumetinib] + Cc1nc(Nc2ncc(C(=O)Nc3c(C)cccc3Cl)s2)cc(N2CCN(CCO)CC2)n1 [dasatanib] (first compound 0.075 µM, partner dose 0.02 µM)",90.4%
4,"Cn1cnc2c(F)c(Nc3ccc(Br)cc3Cl)c(C(=O)NOCCO)cc21 [selumetinib] + Cn1c(=O)n(-c2ccc(C(C)(C)C#N)cc2)c2c3cc(-c4cnc5ccccc5c4)ccc3ncc21 [NVP-BEZ235] (first compound 0.075 µM, partner dose 0.02 µM)",91.2%
5,"Cn1cnc2c(F)c(Nc3ccc(Br)cc3Cl)c(C(=O)NOCCO)cc21 [selumetinib] + C=C(c1ccc(C(=O)O)cc1)c1cc2c(cc1C)C(C)(C)CCC2(C)C [Bexarotene] (first compound 0.075 µM, partner dose 10 µM)",86.3%
6,"C[C@]1(O)C[C@@H](c2nc(-c3ccc4ccc(-c5ccccc5)nc4c3)c3c(N)nccn32)C1 + Nc1nc(F)nc2c1ncn2[C@@H]1O[C@H](CO)[C@@H](O)[C@@H]1O [fludarabine] (first compound 2 µM, partner dose 1 µM)",31.8%
7,"Cn1cnc2c(F)c(Nc3ccc(Br)cc3Cl)c(C(=O)NOCCO)cc21 [selumetinib] + Cn1sc(=O)n(Cc2ccccc2)c1=O [TDZD-8] (first compound 0.075 µM, partner dose 2 µM)",110%
8,"C[C@]1(O)C[C@@H](c2nc(-c3ccc4ccc(-c5ccccc5)nc4c3)c3c(N)nccn32)C1 + OCc1c[nH]c2ccccc12 [Indole-3-carbinol] (first compound 2 µM, partner dose 4 µM)",80.1%
9,"Cn1cnc2c(F)c(Nc3ccc(Br)cc3Cl)c(C(=O)NOCCO)cc21 [selumetinib] + C=CCNC1=C2C[C@@H](C)C[C@H](OC)[C@H](O)[C@@H](C)/C=C(\C)[C@H](OC(N)=O)[C@@H](OC)/C=C\C=C(/C)C(=O)NC(=CC1=O)C2=O [Tanespimycin] (first compound 0.075 µM, partner dose 0.01 µM)",98.7%
10,"CCN(CC)CCNC(=O)c1c(C)[nH]c(/C=C2\C(=O)Nc3ccc(F)cc32)c1C [sunitinib] + O=C(O)C(=O)Nc1sc2c(c1C(=O)O)CCNC2 [TCS401] (first compound 2 µM, partner dose 8.33333 µM)",100%
11,"Cn1cnc2c(F)c(Nc3ccc(Br)cc3Cl)c(C(=O)NOCCO)cc21 [selumetinib] + Cn1c(Nc2ccc(C(F)(F)F)cc2)nc2cc(Oc3ccnc(-c4ncc(C(F)(F)F)[nH]4)c3)ccc21 [CHIR265] (first compound 0.075 µM, partner dose 0.4 µM)",61.1%
12,"COc1cc([C@@H]2c3cc4c(cc3[C@@H](O[C@@H]3O[C@@H]5CO[C@@H](C)O[C@H]5[C@H](O)[C@H]3O)[C@H]3COC(=O)[C@H]23)OCO4)cc(OC)c1O [etoposide] + Nc1nc(F)nc2c1ncn2[C@@H]1O[C@H](CO)[C@@H](O)[C@@H]1O [fludarabine] (first compound 0.1 µM, partner dose 1 µM)",26.5%
13,"Cn1cnc2c(F)c(Nc3ccc(Br)cc3Cl)c(C(=O)NOCCO)cc21 [selumetinib] + Nc1ncn([C@H]2C[C@H](O)[C@@H](CO)O2)c(=O)n1 [decitabine] (first compound 0.075 µM, partner dose 0.5 µM)",91.7%
14,"Cn1cnc2c(F)c(Nc3ccc(Br)cc3Cl)c(C(=O)NOCCO)cc21 [selumetinib] + CC(=O)c1c(C)c2cnc(Nc3ccc(N4CCNCC4)cn3)nc2n(C2CCCC2)c1=O [palbociclib] (first compound 0.075 µM, partner dose 0.2 µM)",82.9%
15,"COc1cc([C@@H]2c3cc4c(cc3[C@@H](O[C@@H]3O[C@@H]5CO[C@@H](C)O[C@H]5[C@H](O)[C@H]3O)[C@H]3COC(=O)[C@H]23)OCO4)cc(OC)c1O [etoposide] + CN(C)S(=O)(=O)c1ccc2c(c1)/C(=C/c1cc3c([nH]1)CCCC3)C(=O)N2 [SU6656] (first compound 0.1 µM, partner dose 2 µM)",99.2%
16,"CCN(CC)CCNC(=O)c1c(C)[nH]c(/C=C2\C(=O)Nc3ccc(F)cc32)c1C [sunitinib] + CN(NC(=O)CC(=O)NN(C)C(=S)c1ccccc1)C(=S)c1ccccc1 [STA4783] (first compound 2 µM, partner dose 0.03 µM)",108%
17,"COc1cc([C@@H]2c3cc4c(cc3[C@@H](O[C@@H]3O[C@@H]5CO[C@@H](C)O[C@H]5[C@H](O)[C@H]3O)[C@H]3COC(=O)[C@H]23)OCO4)cc(OC)c1O [etoposide] + CC1(C)CCC(c2ccc(Cl)cc2)=C(CN2CCN(c3ccc(C(=O)NS(=O)(=O)c4ccc(N[C@H](CCN5CCOCC5)CSc5ccccc5)c(S(=O)(=O)C(F)(F)F)c4)cc3)CC2)C1 [ABT263] (first compound 0.1 µM, partner dose 2 µM)",51.2%
